# Assay results from the supplement of paper PMC8728848.
# The other results are listed elsewhere or left out.
# What was measured:
# Assay in all cases: glycan array binding signal (z-score within array); higher = stronger binding
# Details in all cases: glycan notation: IUPAC condensed, linker removed
# [1] = biological target: GlcNAc(b1-3)[GlcNAc(b1-4)][GlcNAc(b1-6)]GlcNAc
# In short: (§1)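 From the Consortium for Functional Glycomics database, 3228 arrays were curated, keeping only those whose protein sequence was available. Binding is given as a within-array Z-score averaged across arrays sharing a protein sequence and across linkers. Negative Z-scores can be read as non-binding.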
# [2] = biological target: GlcNAc(b1-3)[GlcNAc(b1-6)]Gal(b1-4)GlcNAc
# In short: as §1
# [3] = biological target: GlcNAc(b1-3)[GlcNAc(b1-6)]GalNAc
# In short: as §1
# [4] = biological target: GlcNAc(b1-3)[GlcNAc(b1-6)]GlcNAc(b1-4)GlcNAc
# In short: as §1
# [5] = biological target: GlcNAc(b1-4)Gal(b1-4)GlcNAc
# In short: as §1
# GlcNAc(b1-4)GlcNAc = biological target: GlcNAc(b1-4)GlcNAc
# In short: as §1
# [6] = biological target: GlcNAc(b1-4)GlcNAc(b1-4)GlcNAc
# In short: as §1
# [7] = biological target: GlcNAc(b1-4)GlcNAc(b1-4)GlcNAc(b1-4)GlcNAc(b1-4)GlcNAc
# In short: as §1
# [8] = biological target: GlcNAc(b1-4)GlcNAc(b1-4)GlcNAc(b1-4)GlcNAc(b1-4)GlcNAc(b1-4)GlcNAc
# In short: as §1
# [9] = biological target: GlcNAc(b1-4)[GlcNAc(b1-6)]GalNAc
# In short: as §1
# [10] = biological target: GlcNAc(b1-6)Gal(b1-4)GlcNAc
# In short: as §1
# GlcNAc(b1-6)GalNAc = biological target: GlcNAc(b1-6)GalNAc
# In short: as §1
# GlcNAc3Prop(b1-4)GlcNAc = biological target: GlcNAc3Prop(b1-4)GlcNAc
# In short: as §1
# Kdn(a2-3)Gal(b1-3)GlcNAc = biological target: Kdn(a2-3)Gal(b1-3)GlcNAc
# In short: as §1
# Kdn(a2-3)Gal(b1-4)GlcNAc = biological target: Kdn(a2-3)Gal(b1-4)GlcNAc
# In short: as §1
# [11] = biological target: Man(a1-2)Man(a1-2)Man(a1-3)Man
# In short: as §1
# [12] = biological target: Man(a1-2)Man(a1-2)Man(a1-6)[Man(a1-3)]Man
# In short: as §1
# Man(a1-2)Man(a1-3)Man = biological target: Man(a1-2)Man(a1-3)Man
# In short: as §1
# [13] = biological target: Man(a1-2)Man(a1-3)[Man(a1-2)Man(a1-6)]Man
# In short: as §1
# [14] = biological target: Man(a1-2)Man(a1-3)[Man(a1-2)Man(a1-6)]Man(a1-6)[Man(a1-2)Man(a1-2)Man(a1-3)]Man
# In short: as §1
# [15] = biological target: Man(a1-2)Man(a1-3)[Man(a1-2)Man(a1-6)]Man(a1-6)[Man(a1-2)Man(a1-2)Man(a1-3)]Man(b1-4)GlcNAc(b1-4)GlcNAc
# In short: as §1
# [16] = biological target: Man(a1-2)Man(a1-3)[Man(a1-6)]Man(a1-6)[Man(a1-2)Man(a1-3)]Man(b1-4)GlcNAc(b1-4)GlcNAc
# In short: as §1
# [17] = biological target: Man(a1-2)Man(a1-6)[Man(a1-3)]Man(a1-6)[Man(a1-2)Man(a1-2)Man(a1-3)]Man
# In short: as §1
# [18] = biological target: Man(a1-2)Man(a1-6)[Man(a1-3)]Man(a1-6)[Man(a1-2)Man(a1-2)Man(a1-3)]Man(b1-4)GlcNAc(b1-4)GlcNAc
# In short: as §1
# Man(a1-3)[Man(a1-6)]Man = biological target: Man(a1-3)[Man(a1-6)]Man
# In short: as §1
# [19] = biological target: Man(a1-3)[Man(a1-6)]Man(a1-6)[Man(a1-2)Man(a1-3)]Man(b1-4)GlcNAc(b1-4)GlcNAc
# In short: as §1
# [20] = biological target: Man(a1-3)[Man(a1-6)]Man(a1-6)[Man(a1-3)]Man
# In short: as §1
# [21] = biological target: Man(a1-3)[Man(a1-6)]Man(a1-6)[Man(a1-3)]Man(b1-4)GlcNAc(b1-4)GlcNAc
# In short: as §1
# [22] = biological target: Man(a1-3)[Man(a1-6)]Man(b1-4)GlcNAc(b1-4)GlcNAc
# In short: as §1
# Man(a1-6)Man = biological target: Man(a1-6)Man
# In short: as §1
# Man(b1-4)GlcNAc = biological target: Man(b1-4)GlcNAc
# In short: as §1
# Neu5Ac(a2-3)Gal = biological target: Neu5Ac(a2-3)Gal
# In short: as §1
# [23] = biological target: Neu5Ac(a2-3)Gal(b1-3)GalNAc
# In short: as §1
# [24] = biological target: Neu5Ac(a2-3)Gal(b1-3)GalNAc(b1-3)Gal(a1-4)Gal(b1-4)Glc
# In short: as §1
# [25] = biological target: Neu5Ac(a2-3)Gal(b1-3)GalNAc(b1-3)Gal(b1-4)GlcNAc
# In short: as §1
# [26] = biological target: Neu5Ac(a2-3)Gal(b1-3)GalNAc(b1-4)[Neu5Ac(a2-3)]Gal(b1-4)Glc
# In short: as §1
# [27] = biological target: Neu5Ac(a2-3)Gal(b1-3)GalNAc6S
# In short: as §1
# [28] = biological target: Neu5Ac(a2-3)Gal(b1-3)GlcNAc
# In short: as §1
binder,measurement,setting,value
"L-Selectin (Mus musculus), P18337 (protein) MVFPWRCEGTYWGSRNILKLWVWTLLCCDFLIHHGTHCWTYHYSEKPMNWENARKFCKQNYTDLVAIQNKREIEYLENTLPKSPYYYWIGIRKIGKMWTWVGTNKTLTKEAENWGAGEPNNKKSKEDCVEIYIKRERDSGKWNDDACHKRKAALCYTASCQPGSCNGRGECVETINNHTCICDAGYYGPQCQYVVQCEPLEAPELGTMDCIHPLGNFSFQSKCAFNCSEGRELLGTAETQCGASGNWSSPEPICQVVQCEPLEAPELGTMDCIHPLGNFSFQSKCAFNCSEGRELLGTAETQCGASGNWSSPEPICQETNRSFSKIKEGDYNPLFIPVAVMVTAFSGLAFLIWLARRLKKGKKSQERMDDPY",glycan array binding signal (z-score),[1],-0.224
same,glycan array binding signal (z-score),[2],-0.379
same,glycan array binding signal (z-score),[3],-0.031
same,glycan array binding signal (z-score),[4],-0.563
same,glycan array binding signal (z-score),[5],-0.044
same,glycan array binding signal (z-score),GlcNAc(b1-4)GlcNAc,-0.057
same,glycan array binding signal (z-score),[6],0.255
same,glycan array binding signal (z-score),[7],0.13
same,glycan array binding signal (z-score),[8],-0.196
same,glycan array binding signal (z-score),[9],-0.492
same,glycan array binding signal (z-score),[10],-0.368
same,glycan array binding signal (z-score),GlcNAc(b1-6)GalNAc,-0.412
same,glycan array binding signal (z-score),GlcNAc3Prop(b1-4)GlcNAc,-0.444
same,glycan array binding signal (z-score),Kdn(a2-3)Gal(b1-3)GlcNAc,-0.025
same,glycan array binding signal (z-score),Kdn(a2-3)Gal(b1-4)GlcNAc,-0.552
same,glycan array binding signal (z-score),[11],-0.124
same,glycan array binding signal (z-score),[12],-0.473
same,glycan array binding signal (z-score),Man(a1-2)Man(a1-3)Man,-0.133
same,glycan array binding signal (z-score),[13],-0.185
same,glycan array binding signal (z-score),[14],-0.183
same,glycan array binding signal (z-score),[15],-0.206
same,glycan array binding signal (z-score),[16],-0.4
same,glycan array binding signal (z-score),[17],-0.538
same,glycan array binding signal (z-score),[18],-0.153
same,glycan array binding signal (z-score),Man(a1-3)[Man(a1-6)]Man,-0.504
same,glycan array binding signal (z-score),[19],-0.031
same,glycan array binding signal (z-score),[20],-0.165
same,glycan array binding signal (z-score),[21],-0.415
same,glycan array binding signal (z-score),[22],-0.213
same,glycan array binding signal (z-score),Man(a1-6)Man,-0.017
same,glycan array binding signal (z-score),Man(b1-4)GlcNAc,-0.34
same,glycan array binding signal (z-score),Neu5Ac(a2-3)Gal,-0.262
same,glycan array binding signal (z-score),[23],-0.246
same,glycan array binding signal (z-score),[24],-0.203
same,glycan array binding signal (z-score),[25],-0.331
same,glycan array binding signal (z-score),[26],-0.468
same,glycan array binding signal (z-score),[27],0.283
same,glycan array binding signal (z-score),[28],-0.281
